# Paper PMC4336329 (PLoS ONE, 2015)
# About 2,200 (0.71%) of roughly 310,000 compounds showed an effect of 50% or more. Effects have a minus sign here. This is one part of the list.
# Biological target: human ether-à-go-go-related gene (hERG) potassium channel (human, UniProt Q12809)
# Assay: primary screen, population patch clamp on CHO cells stably expressing hERG
# human ether-à-go-go-related gene (hERG) potassium channel, sequence (Q12809 whole entry, looked up): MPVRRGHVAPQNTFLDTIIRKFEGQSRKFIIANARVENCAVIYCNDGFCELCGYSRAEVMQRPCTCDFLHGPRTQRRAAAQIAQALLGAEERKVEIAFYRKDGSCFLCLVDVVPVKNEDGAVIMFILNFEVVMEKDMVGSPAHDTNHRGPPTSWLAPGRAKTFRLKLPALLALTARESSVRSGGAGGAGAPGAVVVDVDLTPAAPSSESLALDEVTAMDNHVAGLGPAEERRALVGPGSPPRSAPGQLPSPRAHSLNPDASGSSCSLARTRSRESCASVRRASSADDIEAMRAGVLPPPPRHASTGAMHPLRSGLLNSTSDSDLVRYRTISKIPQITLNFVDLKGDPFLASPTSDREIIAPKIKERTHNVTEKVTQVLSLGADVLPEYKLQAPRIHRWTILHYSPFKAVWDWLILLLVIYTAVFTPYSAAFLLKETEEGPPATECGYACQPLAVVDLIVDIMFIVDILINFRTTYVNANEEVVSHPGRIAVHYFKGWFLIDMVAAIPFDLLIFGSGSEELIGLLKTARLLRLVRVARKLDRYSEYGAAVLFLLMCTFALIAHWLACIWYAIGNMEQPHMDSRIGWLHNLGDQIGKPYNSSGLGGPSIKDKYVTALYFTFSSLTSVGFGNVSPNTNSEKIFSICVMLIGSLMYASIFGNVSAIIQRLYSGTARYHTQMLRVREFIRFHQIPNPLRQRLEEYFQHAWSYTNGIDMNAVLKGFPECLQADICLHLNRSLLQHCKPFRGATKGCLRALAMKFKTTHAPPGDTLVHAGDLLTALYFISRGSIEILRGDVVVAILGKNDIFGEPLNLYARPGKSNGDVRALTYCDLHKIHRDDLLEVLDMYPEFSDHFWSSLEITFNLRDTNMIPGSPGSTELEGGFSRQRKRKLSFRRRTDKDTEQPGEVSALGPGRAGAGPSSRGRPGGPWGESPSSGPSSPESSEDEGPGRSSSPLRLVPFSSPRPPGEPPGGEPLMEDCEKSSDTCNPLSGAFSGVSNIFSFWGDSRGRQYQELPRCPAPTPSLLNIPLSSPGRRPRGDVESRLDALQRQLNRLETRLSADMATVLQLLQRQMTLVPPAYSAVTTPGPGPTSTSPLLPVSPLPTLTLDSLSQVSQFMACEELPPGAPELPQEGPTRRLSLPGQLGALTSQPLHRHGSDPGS
row,SMILES,"hERG current change (%, negative = inhibition) at 1uM [%]"
1,Cc1cc(NC(=O)CCSc2ccccc2)no1,14.2
2,CCCCn1c(SCc2nc3ccccc3s2)nc2ccccc2c1=O,-7.77
3,CCCC(C)C(=O)Nc1nc(C)c(-c2csc(Nc3ccccc3OC)n2)s1 (stereo not drawn),15.2
4,CCOC(=O)C(C(=O)OCC)C(C[N+](=O)[O-])c1ccccc1 (stereo not drawn),15.6
5,Cc1ccc2c(c1)sc(=NC(=O)C1CC1)n2C,11.3
6,Cc1ccc(CNS(=O)(=O)c2cc3c4c(c2)C(C)C(=O)N4CCC3)cc1 (stereo not drawn),5.3
7,Cc1ccc(S(=O)(=O)N/N=C/c2cc(Br)c(C)o2)cc1,8.23
8,CCCCCCCCCC(=O)N/N=C(\C)c1cccnc1,8.34
9,COc1ccccc1CNC(=O)C1CCCC1,16.1
10,c1ccc(CCNCCCOc2cccc3ccccc23)cc1,9.09
11,O=C(NCCN1CCOCC1)c1c(F)c(F)c(F)c(F)c1F,13.8
12,CN(C(=S)NC(=O)C1CC1)c1ccc(O)cc1,1.38
13,CS(=O)(=O)Nc1ccc(-c2cc(/C=C3\SC(N)=NC3=O)c[nH]c2=O)cc1,11.3
14,Cc1ccc(NC(=O)CCn2c(=O)[nH]c3ccsc3c2=O)cc1F,10.7
15,Cc1nc(-c2ccc(C#N)cc2)cs1,6.32
16,Cc1ccccc1C(=O)Nc1ccccc1Sc1ccccc1,13.8
17,CC1CCCC(C)N1C(=O)COC(=O)C12CC3CC(CC(Cl)(C3)C1)C2 (stereo not drawn),4.8
18,c1ccc2oc(SCc3cn4ccccc4n3)nc2c1,-12.5
19,O=C(Cc1cc2ccccc2o1)NCc1ccc(F)cc1,13.7

row,SMILES,"hERG current change (%, negative = inhibition) at 1uM [%]"
1,Cc1ccc(N(CC(=O)NC2CCCCC2)C(=O)Cn2nnc(-c3ccc(C)o3)n2)cc1,4.94
2,CCN(CC)c1ccc(/C=C2\C(=O)NC(=S)N(C)C2=O)o1,7.14
3,COc1ccc2c(C(=O)CN3CCC(C)CC3)c[nH]c2c1,-3.09
4,CC(C)OCCCn1c(=NC(=O)c2ccncc2)c(C#N)cc2c(=O)n3ccccc3nc21,-63.4
5,O=C(Cn1c(=O)c2cccn2c2ccccc21)NCCc1ccc(Cl)cc1,7.16
6,CCOc1cc(/C=N/NC(=O)Cn2nc([N+](=O)[O-])cc2C)ccc1OCc1ccc(F)cc1,8.07
7,CCOC(=O)c1c(NC(=O)CSc2nnc(-c3cccnc3)o2)sc(C)c1C,10.8
8,COC(=O)c1cn(NC(=O)c2cccc(F)c2)c(=O)c2ccccc12,27.7
9,CCN(c1ccccc1)S(=O)(=O)c1ccc(OC)c(NC(=O)c2cccs2)c1,11.2
10,CCc1ccc(NS(=O)(=O)c2ccc3[nH]cc(C(=O)N4CCc5ccccc54)c(=O)c3c2)cc1,9.43
11,C=CCn1c(SCc2c(F)c(F)c(F)c(F)c2F)nc(O)cc1=O,7.44
12,CC(=O)O[C@@H]1[C@H]2CC[C@@H]3[C@]1(C[C@@H](OC(C)=O)[C@@]1(O)C([C@@H]4O[C@@H]4C1(C)C)[C@]3(C)O)C[C@@]2(C)O (stereo partly drawn),5.75
13,Oc1ccc(-c2nc3ccc4ccccc4c3c3c2CCC3)cc1O,-0.0932
14,COC(=O)c1cccc(NC(=O)N2C[C@H]3C[C@@H](C2)c2cccc(=O)n2C3)c1,4.46
15,CC12CC3(C)CC(C)(C1)CC(C(=O)NCC(=O)O)(C2)C3,19.5
16,Cc1ccc(S(=O)(=O)N2CCN(CCC#N)CC2)cc1,12.5
17,CCN(CC)c1ccc(-n2c(O)c(C=C3N=c4ccccc4=N3)sc2=S)cc1,3.15
18,Cc1nn(-c2ccc(F)cc2)c(Cl)c1C(=O)NCC1CCCO1 (stereo not drawn),6.89
19,COc1ccc(/C(C)=N/NC(=S)NCCc2ccccc2)cc1,12

row,SMILES,"hERG current change (%, negative = inhibition) at 1uM [%]"
1,Cc1cc(=O)oc(C)c1C(=O)NCc1ccco1,10.4
2,COC(=O)c1ccc(-c2ccc(CNCC(O)c3ccccc3)o2)cc1.Cl (stereo not drawn),1.92
3,CCc1ccc(NC(=O)CSc2nnc(SCC(=O)Nc3ccc(CC)cc3)n2N)cc1,-0.068
4,CCCCC1=CC2=CC(=O)C(C)(O)C(=O)C2=CO1 (stereo not drawn),19
5,Fc1cc2ncn(Cc3ccccc3)c2cc1F,7.02
6,Cc1cc(C)cc(OCC(=O)OCC(=O)NC2CCCCCCC2)c1,-9.86
7,COc1ccc(CNC(=O)c2c[nH]c3c(OC)cc(OC)cc3c2=O)cc1,14.3
8,COc1ccccc1CC(NC(C)=O)C(=O)NC1CCN(C(=O)c2cccc(Cl)c2)CC1 (stereo not drawn),10.5
9,O=C(N/N=C/c1ccc(O)cc1)c1csc2ccccc12,-20.1
10,COc1ccc(/C=N/NC(=S)NC2CCS(=O)(=O)C2)cc1OC (stereo not drawn),4.93
11,CC(=O)NC(CCS(C)(=O)=O)C(=O)Nc1cccc(C(C)=O)c1 (stereo not drawn),11.7
12,Cc1cc(C)n2cc(CSc3ccc(Br)cc3)nc2n1,-36.9
13,C/C(Cc1ccccc1)=N\NC(=O)CNC(=O)c1cccc(F)c1,13.3
14,CCOC(=O)/C(=N\Nc1ccccc1Cl)N1CCN(c2ccccc2OC)CC1,18.3
15,O=C(Cc1ccc(Br)cc1)Nc1ccc(S(=O)(=O)NCC2CCCO2)cc1 (stereo not drawn),7.2
16,CCN(CC(=O)Nc1ccc2c(c1)OCCO2)C(=O)C(C)Oc1ccc(Cl)cc1 (stereo not drawn),8.21
17,COc1ccccc1Cn1nnc2c(=O)[nH]c(C3CCN(C(=O)c4ccccc4Cl)CC3)nc21,11.6
18,Cn1c(=O)c2c(nc(SCC(=O)NC34CC5CC(CC(C5)C3)C4)n2C)n(C)c1=O,-2.24
19,COc1cccc(N=Nc2ccc3cccnc3c2O)c1,-1.19
